According to paper PMC10892984, “Novel Antineoplastic Inducers of Mitochondrial Apoptosis in Human Cancer Cells” (Molecules, 2024):

Tested on: NCI-H322M
Settings: for GI50 / CC50: Homo sapiens, 48 h; for CC50: read-out: LC50; for TGI: non-small-cell lung cancer, mutant p53, 48 h

| SMILES | GI50 | CC50 | TGI |
| --- | --- | --- | --- |
| COc1cc2c(c(OC)c1OC)-c1ccc(NNC(N)=S)c(=O)cc1C(NC(C)=O)CC2 [Compound 2, N-[(aS,7S)-10-(2-carbamothioylhydrazinyl)-1,2,3-trimethoxy-9-oxo-5,6,7,9-tetrahydrobenzo[a]heptalen-7-yl]acetamide monohydrate × ⅔ (ethyl acetate)] | 0.619 µM | > 100 µM | > 100 µM |
| c1cc(CNC23CC4CC(CC(C4)C2)C3)cc(C[N+](Cc2cccc(CNC34CC5CC(CC(C5)C3)C4)c2)(Cc2cccc(CNC34CC5CC(CC(C5)C3)C4)c2)Cc2cccc(CNC34CC5CC(CC(C5)C3)C4)c2)c1 (stereo not shown) [Compound 1, tetrakis{3-[(tricyclo[3.3.1.1^3,7]decan-1-ammonio)methyl]benzyl}ammonium pentachloride] | 1.26 µM | 16 µM | 5.10 µM |
| COc1cc2c(c(OC)c1OC)-c1ccc(NNC(=S)N(Cc3cccc(C[N+](Cc4cccc(CNC56CC7CC(CC(C7)C5)C6)c4)(Cc4cccc(CNC56CC7CC(CC(C7)C5)C6)c4)Cc4cccc(CN(C(=S)NNc5ccc6c(cc5=O)C(NC(C)=O)CCc5cc(OC)c(OC)c(OC)c5-6)C56CC7CC(CC(C7)C5)C6)c4)c3)C34CC5CC(CC(C5)C3)C4)c(=O)cc1C(NC(C)=O)CC2 [Compound 3, [(bis{3-[(tricyclo[3.3.1.1^3,7]decan-1-ylamino)methyl]benzyl}ammonio)bis(methanediylbenzene-3,1-diylmethanediyl)]di-2-[(aS,7S)-7-(acetylamino)-1,2,3-trimethoxy-9-oxo-5,6,7,9-tetrahydrobenzo[a]heptalen-10-yl]-N-(tricyclo[3.3.1.1^3,7]decan-1-yl)hydrazinecarbothioamide chloride pentahydrate] |  |  | 7.03 µM |
